The chains are these.
B1: PhoQ; a variant is named by its letters at X, in order, P23837 (parent)
chain: MKKLLRLFFPLSLRVRFLLATAAVVLVLSLAYGMVALIGYSVSFDKTTFRLLRGESNLFYTLAKWENNKLHVELPENIDKQSPTMTLIYDENGQLLWAQRDVPWLMKMIQPDWLKSNGFHEIEADVNDTSLLLSGDHSIQQQLQEVREDDDDAEMTHSVAVNVYPATSRMPKLTIVVVDTIPVELKSSYMVWSWFIYVLSANLLLVIPLLWVAAWWSLRPIEALAKEVRELEEHNRELLNPATTRELTSLVRNLNRLLKSERERYDKYRTTLTDLTHSLKTPLXXLQXXLRSLRSEKMSVSDAEPVMLEQISRISQQIGYYLHRASMRGGTLLSRELHPVAPLLDNLTSALNKVYQRKGVNISLDISPEISFVGEQNDFVEVMGNVLDNACKYCLEFVEISARQTDEHLYIVVEDDGPGIPLSKREVIFDRGQRVDTLRPGQGVGLAVAREITEQYEGKIVAGESMLGGARMEVIFGRQHSAPKDE

The list shows a part of the results. Some results are limits rather than exact numbers.

The variants in the assay derive from B1. Put plainly: enrichment ratio after two sorts for PhoP signalling (ratio (wild type AVST 3.29)); higher = more functional. The conditions noted are these: with PhoP (E. coli).
In the case of YTKS, the enrichment ratio was not above 0.25.

Consider QCLT, for which the enrichment ratio was not above 0.25.

Regarding EYNQ, the enrichment ratio is not above 0.25.

With ICVG, the enrichment ratio was not above 0.25.

Consider VRDC, for which the enrichment ratio was not above 0.25.

As for NSRR, the enrichment ratio is not above 0.25.

As to NLGG, the enrichment ratio was not above 0.25.

On to ALGV, for which the enrichment ratio was not above 0.25.

Consider DWCR, for which the enrichment ratio is not above 0.25.

For the variant SNHW, the enrichment ratio is not above 0.25.

Consider LTKE, for which the enrichment ratio is not above 0.25.

For the variant RWAC, the enrichment ratio was not above 0.25.

As to IDSC, the enrichment ratio was not above 0.25.

Consider DWQY, for which the enrichment ratio was not above 0.25.

With NWHL, the enrichment ratio was not above 0.25.

For the variant GIWM, the enrichment ratio was not above 0.25.

With YGEK, the enrichment ratio was not above 0.25.

Consider YKYG, for which the enrichment ratio was not above 0.25.

As to TCYY, the enrichment ratio turned out to be 3.43.

As to EGYT, the enrichment ratio was not above 0.25.

On to QYKV, for which the enrichment ratio is not above 0.25.

QKMD: the enrichment ratio is not above 0.25.

EQHA: the enrichment ratio is not above 0.25.

On to AINS, for which the enrichment ratio was not above 0.25.

On to VECT, for which the enrichment ratio amounted to 12.

Turning to IFHT, the enrichment ratio was not above 0.25.

Turning to TPDH, the enrichment ratio was not above 0.25.

As for WGLC, the enrichment ratio was not above 0.25.

Consider VFAG, for which the enrichment ratio is not above 0.25.

As to QAPH, the enrichment ratio was not above 0.25.

In the case of ITNK, the enrichment ratio was not above 0.25.

MHEP: the enrichment ratio is not above 0.25.

Take PAEI: the enrichment ratio is not above 0.25.

Regarding WGSF, the enrichment ratio is not above 0.25.

For VGLL, the enrichment ratio stood at 9.05.

Take YSAI: the enrichment ratio is not above 0.25.

For PGTI, the enrichment ratio is not above 0.25.

For the variant YGGL, the enrichment ratio is not above 0.25.

LDCS: the enrichment ratio was not above 0.25.

As to GPKL, the enrichment ratio is not above 0.25.

With EPIG, the enrichment ratio is not above 0.25.

Take GTCP: the enrichment ratio was not above 0.25.

For the variant HLPH, the enrichment ratio was not above 0.25.

Consider SHNF, for which the enrichment ratio turned out to be 9.74.

With WVHH, the enrichment ratio was not above 0.25.

Consider LNNT, for which the enrichment ratio was not above 0.25.

With NRNY, the enrichment ratio was not above 0.25.

For TLSR, the enrichment ratio turned out to be 1.28.

In the case of ERSF, the enrichment ratio was not above 0.25.

PCHQ: the enrichment ratio is not above 0.25.

With WPNT, the enrichment ratio was not above 0.25.

Turning to WASD, the enrichment ratio is not above 0.25.

As to NMAP, the enrichment ratio was not above 0.25.

For the variant DWGI, the enrichment ratio is not above 0.25.

On to NMMR, for which the enrichment ratio was not above 0.25.

As for FDFA, the enrichment ratio turned out to be 0.475.

With EQHP, the enrichment ratio was not above 0.25.

GCIC: the enrichment ratio was found to be 2.37.

Turning to AEWH, the enrichment ratio is 22.3.

Consider RYNR, for which the enrichment ratio is not above 0.25.

For the variant MLVT, the enrichment ratio is not above 0.25.

Turning to YPWD, the enrichment ratio is not above 0.25.

For PPEV, the enrichment ratio is not above 0.25.

On to LQSE, for which the enrichment ratio was not above 0.25.

In the case of IDHI, the enrichment ratio is not above 0.25.

For the variant AQDE, the enrichment ratio was not above 0.25.

Turning to ERSR, the enrichment ratio is not above 0.25.

As to ALHS, the enrichment ratio was not above 0.25.

For QSLG, the enrichment ratio came out at 0.319.

For HFKP, the enrichment ratio was not above 0.25.

For QPCF, the enrichment ratio was not above 0.25.

For KRGQ, the enrichment ratio was not above 0.25.

For the variant SYIY, the enrichment ratio is not above 0.25.

Regarding RHIT, the enrichment ratio is not above 0.25.

Regarding HTQF, the enrichment ratio is not above 0.25.

In the case of APLH, the enrichment ratio is not above 0.25.

Consider KETC, for which the enrichment ratio is not above 0.25.

Consider YHGD, for which the enrichment ratio was not above 0.25.

For VCVM, the enrichment ratio is not above 0.25.

With GTGT, the enrichment ratio is not above 0.25.

As for ISYG, the enrichment ratio is not above 0.25.

For NELS, the enrichment ratio was determined as 1.28.

With ASDT, the enrichment ratio is not above 0.25.

In the case of LHSS, the enrichment ratio is not above 0.25.

On to RGLC, for which the enrichment ratio was not above 0.25.

Consider YKFQ, for which the enrichment ratio is not above 0.25.

Regarding KFFQ, the enrichment ratio is not above 0.25.

Regarding DHDS, the enrichment ratio is not above 0.25.

As for SSEM, the enrichment ratio was not above 0.25.

As to VHRQ, the enrichment ratio is not above 0.25.

Take FKAV: the enrichment ratio was not above 0.25.

On to LNVG, for which the enrichment ratio is not above 0.25.

As to NGPQ, the enrichment ratio was not above 0.25.

Regarding DSAS, the enrichment ratio is not above 0.25.

As for YFGN, the enrichment ratio was not above 0.25.

In the case of SEHG, the enrichment ratio was not above 0.25.

Turning to RLHH, the enrichment ratio is not above 0.25.

As to LLQR, the enrichment ratio was not above 0.25.

Consider SHFC, for which the enrichment ratio was not above 0.25.

Take TMYI: the enrichment ratio was not above 0.25.

Take PKQS: the enrichment ratio was not above 0.25.

HIDR: the enrichment ratio was not above 0.25.

In the case of WYPS, the enrichment ratio was determined as 1.1.

Take PHAK: the enrichment ratio is not above 0.25.

Consider LTKM, for which the enrichment ratio is not above 0.25.

For AVQP, the enrichment ratio was not above 0.25.

Turning to EPNN, the enrichment ratio was not above 0.25.

Take QGRS: the enrichment ratio is not above 0.25.

For PRAV, the enrichment ratio worked out at 0.412.

In the case of EYLE, the enrichment ratio is not above 0.25.

Regarding TNGN, the enrichment ratio was 3.75.

Consider YAQM, for which the enrichment ratio was not above 0.25.

On to MRYS, for which the enrichment ratio is not above 0.25.

On to YCAK, for which the enrichment ratio is not above 0.25.

Take QGSW: the enrichment ratio was not above 0.25.

Regarding HYMS, the enrichment ratio was not above 0.25.

Consider PKHP, for which the enrichment ratio was not above 0.25.

For HMKN, the enrichment ratio is not above 0.25.

Turning to IFTK, the enrichment ratio was not above 0.25.

FNPF: the enrichment ratio is not above 0.25.

Regarding KTGW, the enrichment ratio was not above 0.25.

LCSY: the enrichment ratio was not above 0.25.

On to SHIE, for which the enrichment ratio is not above 0.25.

In the case of GNSE, the enrichment ratio is not above 0.25.

NAIK: the enrichment ratio was not above 0.25.

Regarding YSDR, the enrichment ratio was not above 0.25.

GGKI: the enrichment ratio is not above 0.25.

On to MFIN, for which the enrichment ratio was not above 0.25.

On to SVKH, for which the enrichment ratio was not above 0.25.

VPQH: the enrichment ratio is not above 0.25.

For the variant RNSR, the enrichment ratio is not above 0.25.

Take LVPW: the enrichment ratio is not above 0.25.

On to TTTM, for which the enrichment ratio is 19.4.

Take DTFI: the enrichment ratio was not above 0.25.

As to YTFH, the enrichment ratio was not above 0.25.

For the variant NYDL, the enrichment ratio is not above 0.25.

As to MQFN, the enrichment ratio is not above 0.25.

Consider HLFF, for which the enrichment ratio was not above 0.25.

NNKK: the enrichment ratio was not above 0.25.

In the case of MSAT, the enrichment ratio came to 7.26.

On to YCNA, for which the enrichment ratio was not above 0.25.

As to VPPH, the enrichment ratio was not above 0.25.

Regarding SRYM, the enrichment ratio was not above 0.25.

Regarding RYFP, the enrichment ratio was not above 0.25.

With ISWC, the enrichment ratio was not above 0.25.

On to QHYF, for which the enrichment ratio is not above 0.25.

For RYPW, the enrichment ratio is not above 0.25.

In the case of RQIN, the enrichment ratio was not above 0.25.

With GSPY, the enrichment ratio is not above 0.25.

On to ITHV, for which the enrichment ratio was not above 0.25.

As to LWRH, the enrichment ratio is not above 0.25.

For EYMK, the enrichment ratio was not above 0.25.

Regarding TFQQ, the enrichment ratio was not above 0.25.
